Values joined by “and” are separate entries in the source; they are usually repeats but may differ in a detail not shown here. Equal values may be shown once. The campaign covered roughly 110,000 compounds. About 230 (0.21%) showed an effect of 50% or more. The list shows a part of the results.
These compounds were tested against DPAP1 (Plasmodium falciparum, UniProt Q8IIJ9) (assay: primary screen, percent inhibition; read by cleavage of a fluorogenic dipeptide substrate; higher = more effect of the substance).
Parameters: species or system P. falciparum D10 trophozoite lysates; single well
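Also: 30 min substrate incubation versus DMSO and 10 µM JCP410 controls.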

Sequence of DPAP1 (Q8IIJ9 whole entry, looked up): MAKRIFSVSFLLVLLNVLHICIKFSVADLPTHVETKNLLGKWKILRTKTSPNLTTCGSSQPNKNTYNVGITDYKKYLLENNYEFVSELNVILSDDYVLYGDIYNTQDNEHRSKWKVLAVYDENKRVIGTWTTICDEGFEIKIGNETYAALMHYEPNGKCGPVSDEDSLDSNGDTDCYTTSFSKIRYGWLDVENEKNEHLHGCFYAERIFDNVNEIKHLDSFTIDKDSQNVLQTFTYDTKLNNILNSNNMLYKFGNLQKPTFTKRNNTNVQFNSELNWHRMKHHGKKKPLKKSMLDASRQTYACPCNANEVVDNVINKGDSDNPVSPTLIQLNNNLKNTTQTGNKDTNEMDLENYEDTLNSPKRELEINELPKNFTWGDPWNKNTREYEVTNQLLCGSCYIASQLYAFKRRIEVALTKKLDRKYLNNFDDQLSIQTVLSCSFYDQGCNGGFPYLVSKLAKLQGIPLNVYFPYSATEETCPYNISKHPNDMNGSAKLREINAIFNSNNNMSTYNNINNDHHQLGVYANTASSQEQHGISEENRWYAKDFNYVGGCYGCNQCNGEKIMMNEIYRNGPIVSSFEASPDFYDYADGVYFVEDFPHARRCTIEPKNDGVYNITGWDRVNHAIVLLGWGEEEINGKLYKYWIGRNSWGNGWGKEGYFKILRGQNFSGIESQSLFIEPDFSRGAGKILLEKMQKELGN

Compound | % Inhibition @ 10 uM
Cc1ccccc1-c1nc(CS(=O)CC(=O)N2CCCCC2)c(C)o1 (stereo not drawn) | -2.85%
Cc1cccc2c[nH]nc12 | 0.0198%
Cc1nn(-c2ccccc2)c(-n2cccc2)c1C(=O)N1CCC(C(=O)NCc2ccc(F)cc2)CC1 | 1.8%
Oc1nc2cc3nc(O)c(O)nc3cc2[nH]1 | 2.25%
Cc1ccc2ncc(S(=O)(=O)c3ccccc3)c(N3CCN(C)CC3)c2c1 | 0.54%
Cc1cc(O)c(C2=NCCSC(c3ccc4c(c3)OCO4)C2)c(=O)o1 (stereo not drawn) | -5.28%
C=CCn1c(SCC(=O)N2CCN(CCO)CC2)nc2sc3c(c2c1=O)CCC3 | -3.46%
CCCCOC(=O)c1c[nH]nc1[N+](=O)[O-] | -4.31%
CS(=O)(=O)N(CC(=O)Nc1ccccc1)c1ccc(Oc2ccccc2)cc1 | -3.39%
O=C(COc1ccc(F)cc1)NCCN1CCCC1 | -6.05%
Cc1ccc(-c2noc(CNC(=O)C(C)(C)Oc3ccc(Cl)cc3)n2)cc1 | -4.82%
C=C(Br)Cn1c(-c2cccs2)nc2ccccc21 | -2.19%
CC1CCN(C(=O)c2nc(-c3ccc(Cl)cc3)n3c2CCCCC3)CC1 | 0.928%
O=C(Nc1ccc(NC(=O)c2cccs2)cc1)c1ccc(Br)o1 | -2.88%
CC1(C)CC(=O)C2=C(C1)OC(N)=C(C#N)C2(C)C | 0.467%
CCCCOc1nn(-c2ccc3cc(-c4ccccc4)c(=O)oc3c2)nc1C | 3.01%
O=C(NC(C(=O)c1ccccc1)N1CCCCC1)c1ccccc1 (stereo not drawn) | -4.06%
Cc1c(CC(=O)NCc2ccco2)c(=O)oc2cc(O)ccc12 | 0.895%
C=CCNC(=O)COc1ccc(C(C)(C)C)cc1Br | 4.11%
O=C1CC(N2CCN(Cc3ccc4c(c3)OCO4)CC2)C(=O)N1c1ccc(Cl)cc1 (stereo not drawn) | 3.21%
COc1cc(-c2c(C#N)c(N)nc3[nH]c(=S)[nH]c(=O)c23)ccc1O | 4.42%

Compound | % Inhibition @ 10 uM
COc1cccc(C2OC3(C(=O)c4ccccc4C3=O)C3C(=O)N(c4ccc(C)cc4)C(=O)C23)c1 (stereo not drawn) | -0.28%
CCCn1c2ccccc2n2c(C(C)=O)c(-c3ccccc3)nc12 | -7.5%
Cc1nc2ccccn2c1C(=O)NCC(C)C | -1.64%
CCOC(=O)N1CCN(C(=O)CSc2nc(O)c3cnn(-c4ccc(F)cc4)c3n2)CC1 | 6.57%
COc1cc(S(=O)(=O)NCc2ccccn2)c(OC)cc1Cl | 1.74%
O=C1C2CCCCN2C(=O)N1CCCN1CCN(c2ccc(F)cc2)CC1 (stereo not drawn) | -3.65%
CC(=O)c1ccc(N2Cc3ccc(Br)cc3C2)cc1 | -1.85%
Cc1cc(Cl)ccc1OCCCC(=O)Nc1ccccc1F | 10%
CCc1c(CN2CCN(CC)CC2)csc1C | 0.401%
Fc1cccc(Cl)c1CN1CCC(N2CCCCC2)CC1 | 1.9%
COc1ccccc1-c1c(C)nn2c(Cl)cc(C)nc12 | 1.42%
CCOC(=O)c1c(NC(=O)CNC(C)(C)C)sc2c1CCC(C)C2 (stereo not drawn) | 3.32%
COCCCNC1CCC(c2ccccc2)CC1 (stereo not drawn) | -3.27%
CCCc1c(C)c(C#N)c2nc3ccccc3n2c1NCCCn1ccnc1 | 3.93%
CCC(C)NC(=O)c1cc(-c2ccc(OC)c(OC)c2)on1 (stereo not drawn) | -5.09%
C/N=c1\c(NS(=O)(=O)c2ccc(C3CCCCC3)cc2)c(O)oc2ccccc12 | -1.14%
Cc1cc2c(cc3c(SCC(=O)NCc4ccco4)nncn32)o1 | -1.97%
Cc1cccc(CCNc2ncnc3c2nc2n3CCCCC2)c1 | 0.745%
COc1ccc(CNC(=O)C2CC(=O)N(c3ccc(OCC(=O)N4CCCC4)cc3)C2)cc1 (stereo not drawn) | -2.83%
Cc1ccc(C(C)C)c(OCC(=O)Nc2cccc(C(F)(F)F)c2)c1 | 1.48%
COCCNC(=O)C1CCCN(c2nnc(-n3c(C)ccc3C)s2)C1 (stereo not drawn) | -4.15%

Compound | % Inhibition @ 10 uM
CCOC(=O)c1c(S(=O)(=O)N(CC(C)C)CC(C)C)c(C)n(C)c1C | -3.56%
CCCOc1ccc(C2c3c(oc4ccc(F)cc4c3=O)C(=O)N2c2nc(C)c(C)s2)cc1 (stereo not drawn) | -3.13%
Cc1ccc2oc(C(=O)N3CCN(C(c4ccccc4)c4ccccc4)CC3)cc(=O)c2c1 | -1.47%
Cc1oc2ccc(O)c(CN3CCCC3)c2c1C(=O)OCCc1ccccc1 | -4.82%
O=C(Nc1ccccc1Br)c1cccc(Br)c1 | -3.13%
COc1cc(CN(CC2CCCO2)C(=O)c2ccc(C)cc2)cc(OC)c1OC (stereo not drawn) | 0.758%
CCCCCCCCOc1ccc(/C=C(\C#N)c2nc(-c3ccc(Cl)c(Cl)c3)cs2)cc1 | -4.87%
Cc1ccc([C@H]2NCC[C@@]3(O)CCCC[C@H]23)cc1 | 0.878%
COc1ccc(C(=O)n2c(=O)oc3cc(Br)ccc32)cc1 | -2.88%
O=C(Nc1nc2ccccc2n1CCN1CCCCC1)c1ccccc1 | 0.162%
CCOC(=O)Nc1ccc2c(c1)N(C(=O)C(C)N1CCCC1)c1ccccc1CC2 (stereo not drawn) | -2.47%
COc1cc(NC(=O)Cn2ncc3c(C)n(Cc4ccc(F)cc4)c(C)c3c2=O)ncn1 | 1.22%
Nc1nc(-c2sc3nc4c(cc3c2N)CCC4)nc(N2CCOCC2)n1 | -3.46% and 0.331%
C[C@@H](C[C@H](NC(=O)c1cc2c(-c3ccccc3)nn(C)c2s1)C(=O)NCC#N)c1ccccc1 | -3.14%
O=C(Cn1nc(-c2ccc(Cl)cc2)c2ccccc2c1=O)NCc1cccnc1 | 2.95%
CCOc1cccc2sc(N(CCN(C)C)C(=O)C3CCCCC3)nc12 | -4.44%
O=C1c2cccc3cccc(c23)C(=O)N1CC1CCN(S(=O)(=O)c2ccccc2)CC1 | 4.12%
CCC1CCc2c(sc(NC(=O)c3cccnc3)c2C#N)C1 (stereo not drawn) | -1.06%
CCc1ccccc1NC(=O)CN(c1ccc(OC)cc1)S(C)(=O)=O | 3.17%
Cc1c2cnn(CC(=O)NCCCN3CCCC3=O)c(=O)c2c(C)n1Cc1ccccc1 | -5.81%
COc1ccccc1C(=O)N(CCN(C)C)c1nc2cc(C)cc(C)c2s1 | -0.0871%

Source: PMC6919601, “Identification of Plasmodium dipeptidyl aminopeptidase allosteric inhibitors by high throughput screening” (PLoS ONE, 2019)
